These are yes or no findings as the source states them, for the method shown. Some results given as binding are weak or reduced against the parent protein; the word gives no strength. Where a sequence is shown, tags or fusion partners need not be part of it.

Sequences of proteins named here, by UniProt entry; tags and fusion partners are left off.
UniProt O82481: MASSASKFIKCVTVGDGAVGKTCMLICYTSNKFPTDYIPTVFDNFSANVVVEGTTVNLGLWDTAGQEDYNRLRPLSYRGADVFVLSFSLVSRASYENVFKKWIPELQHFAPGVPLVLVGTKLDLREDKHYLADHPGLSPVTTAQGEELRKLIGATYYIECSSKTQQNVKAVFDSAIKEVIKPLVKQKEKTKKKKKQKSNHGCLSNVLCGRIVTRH
UniProt Q38919: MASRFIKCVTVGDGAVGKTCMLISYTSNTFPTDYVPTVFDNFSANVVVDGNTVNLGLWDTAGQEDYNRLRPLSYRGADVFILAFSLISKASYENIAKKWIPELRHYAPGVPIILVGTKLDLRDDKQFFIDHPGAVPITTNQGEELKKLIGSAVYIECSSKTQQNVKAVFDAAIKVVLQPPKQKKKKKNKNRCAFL
UniProt Q38937: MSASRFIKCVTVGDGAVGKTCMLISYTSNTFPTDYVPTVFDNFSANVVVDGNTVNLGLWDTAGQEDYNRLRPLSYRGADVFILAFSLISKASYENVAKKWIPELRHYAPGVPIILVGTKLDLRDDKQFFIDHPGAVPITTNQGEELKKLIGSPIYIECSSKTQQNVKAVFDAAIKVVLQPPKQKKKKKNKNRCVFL
UniProt O82480: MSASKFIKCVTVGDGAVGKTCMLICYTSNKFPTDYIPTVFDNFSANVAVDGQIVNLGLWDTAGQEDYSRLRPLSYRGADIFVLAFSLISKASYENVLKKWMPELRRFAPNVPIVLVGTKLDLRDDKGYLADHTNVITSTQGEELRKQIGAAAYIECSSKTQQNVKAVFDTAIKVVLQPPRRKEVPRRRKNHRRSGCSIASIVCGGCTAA

Holding throughout (assay): two-hybrid; yeast two-hybrid in S. cerevisiae PJ69-4a; pGBT9.BS and pGAD.GH fusions; growth of four decimal dilutions on -Leu -Trp -His medium with 1 mM 3AT, 28°C
For experiment [1], the target named is ICR2, yeast two-hybrid fusion (pGAD-ICR2) (Arabidopsis) (UniProt Q9ZQC5).
The target in experiment [2] is T1, ICR5, yeast two-hybrid fusion (Arabidopsis) (UniProt Q8VYU8).
T1 sequence: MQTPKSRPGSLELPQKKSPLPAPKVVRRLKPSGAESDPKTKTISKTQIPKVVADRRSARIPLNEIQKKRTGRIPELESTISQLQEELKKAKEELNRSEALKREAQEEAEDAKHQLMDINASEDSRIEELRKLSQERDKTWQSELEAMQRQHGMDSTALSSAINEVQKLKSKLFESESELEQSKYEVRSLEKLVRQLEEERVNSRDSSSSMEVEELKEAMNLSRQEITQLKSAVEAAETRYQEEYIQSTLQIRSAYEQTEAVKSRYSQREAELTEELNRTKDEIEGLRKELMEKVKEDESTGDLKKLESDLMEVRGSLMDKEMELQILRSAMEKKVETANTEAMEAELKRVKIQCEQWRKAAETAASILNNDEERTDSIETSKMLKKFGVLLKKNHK

Experiment [3] concerns the target ROP11, yeast two-hybrid fusion (pGBT ROP11) (UniProt O82481).
Experiment [4] concerns the target ROP2, yeast two-hybrid fusion (pGBT ROP2) (UniProt Q38919).
Experiment [5] has as its target ROP4, yeast two-hybrid fusion (pGBT ROP4) (UniProt Q38937).
Experiment [6] addresses ROP9, yeast two-hybrid fusion (pGBT ROP9) (UniProt O82480).
Experiment [7] addresses T2, ICR3, yeast two-hybrid fusion (Arabidopsis) (UniProt Q9LSS5).
T2 sequence: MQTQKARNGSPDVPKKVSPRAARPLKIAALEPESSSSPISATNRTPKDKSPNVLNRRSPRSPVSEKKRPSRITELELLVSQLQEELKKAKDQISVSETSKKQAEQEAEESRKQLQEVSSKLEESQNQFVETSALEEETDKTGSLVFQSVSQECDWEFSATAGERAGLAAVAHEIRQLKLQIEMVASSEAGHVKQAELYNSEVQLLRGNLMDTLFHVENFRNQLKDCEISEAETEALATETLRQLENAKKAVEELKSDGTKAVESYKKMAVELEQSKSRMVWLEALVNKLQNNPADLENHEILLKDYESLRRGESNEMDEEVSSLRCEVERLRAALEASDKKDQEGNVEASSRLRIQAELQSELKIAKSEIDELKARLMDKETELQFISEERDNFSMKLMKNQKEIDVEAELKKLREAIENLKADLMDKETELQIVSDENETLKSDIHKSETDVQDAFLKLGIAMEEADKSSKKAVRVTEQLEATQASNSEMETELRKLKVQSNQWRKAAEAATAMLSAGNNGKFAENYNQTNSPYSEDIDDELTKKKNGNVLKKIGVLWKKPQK

B1: ICR2, yeast two-hybrid fusion (pGAD-ICR2) (protein, UniProt Q9ZQC5 1-583)
chain: MQTPKPRPGSLEVPQKKSPASTPKTARKLKTSESDPVSSPNTKIRTPKTQSPKVVADRRSPRTPVNEIQKKRTGKTPELASQISQLQEELKKAKEQLSASEALKKEAQDQAEETKQQLMEINASEDSRIDELRKLSQERDKAWQSELEAMQRQHAMDSAALSSTMNEVQKLKAQLSESENVENLRMELNETLSLVEKLRGELFDAKEGEAQAHEIVSGTEKQLEIANLTLEMLRSDGMKMSEACNSLTTELEQSKSEVRSLEQLVRQLEEEDEARGNANGDSSSVEELKEEINVARQEISQLKSAVEVTERRYHEEYIQSTLQIRTAYEQVDEVKSGYAQREAELGEELKKTKAERDSLHERLMDKEAKLRILVDENEILNSKIKEKEEVYLNLENSLNQNEPEDTGELKKLESDVMELRANLMDKEMELQSVMSQYESLRSEMETMQSEKNKAIDEALAKLGSLTEEADKSGKRAENATEQLGAAQVTNTELEAELRRLKVQCDQWRKAAEAAATMLSGGNNNNNSNGKYVERTGSLESPLRRRNVNMSPYMGETDDELSSPKKKNGSMLKKIGVLLKKSQK
With B1, the binding result is “no binding” in experiment [1]; “no binding” in experiment [2]; “binds” in experiment [3]; “binds” in experiment [4]; “binds” in experiment [5]; “binds” in experiment [6]. Moreover, the binding entry in experiment [7] is “no binding”.
